{
  "source": "patent US11673947B2",
  "about": "“Target tissue-specific antigen-binding molecule” (Chugai Seiyaku Kabushiki Kaisha, priority 2012, dated 2023)",
  "molecules": {"B1": {"name": "HSNMSC1-4_#22: antibody that binds to HSA in the presence of adenosine; SEQ ID NOs: 54 and 55 (antibody, listed as Homo sapiens)", "heavy": "EVQLVESGGGVVQPGRSLRLSCAAYGFTFSRYGMQWVRQAPGKGLEWVAVIWNDASNQYYADSVKGRFTISRDNSRNTLYLQMDSLRSEDTGLYYCAKEGSSPKTPTSTWSSLESWGQGTLVTVSS[human IgG1 constant region not written out]", "light": "QSALTQPASVSGSPGQSITISCTGTSSDVGGYNYVSWYQQHPGKAPKLMIHDVSNRPSGVSNRFSGSKSGTTASLTISGLQAEDEADYYCSSYTSSTTPYVFGTGTKVTVLGQPKAAPSVTLFPPSSEELQANKATLVCLISDFYPGAVTVAWKADSSPVKAGVETTTPSKQSNNKYAASSYLSLTPEQWKSHRSYSCQVTHEGSTVEKTVAPTECS"}},
  "key": {"HSA [1]": {"molecular_target": "T1, HSA (Homo sapiens, UniProt P02768)", "assay": "IgG ELISA, binding to HSA in the presence or absence of each small molecule", "procedure": "Two types of antibodies obtained: HSNMSC1-4_#22 and GC413, were subjected to ELISA under the nine conditions described in Table 3. Meanwhile, each small molecule was appropriately prepared at the concentrations shown in Table 3 using the buffers indicated in Table 19. Biotin-labeled HSA was used as the antigen.\nFirst, a StreptaWell 96 microtiter plate (Roche) was coated at room temperature for one hour or more with 100 μl of PBS containing biotin-labeled HSA. After washing with Wash buffer to remove unbound biotin-labeled HSA from the plate, each well was blocked for one hour or more with 250 μl of Blocking Buffer. After Blocking Buffer was removed from each well, the purified IgGs were prepared to 2.5 μg/ml in Sample Buffer containing small molecules at the final concentrations shown in Table 3, and each was aliquoted at 100 μl into the plate. The plate was allowed to stand at room temperature for one hour to allow binding of each IgG to biotin-labeled HSA in each well. After washing with Wash Buffer containing small molecules at the final concentrations shown in Table 3, an HRP-conjugated anti-human IgG antibody (BIOSOURCE) diluted with Sample Buffer containing the same small molecules was added to each well. The plate was incubated for one hour. Following wash with Wash Buffer containing each small molecule, the TMB single solution (ZYMED) was added to each well. The chromogenic reaction in the solution of each well was terminated by adding sulfuric acid. Then, the developed color was assessed by measuring absorbance at 450 nm."}, "HSA [2]": {"molecular_target": "T1, HSA", "assay": "Phage ELISA, binding to HSA in the presence or absence of SC", "conditions": "in the presence of SC", "procedure": "Culture supernatants containing phages were collected according to a conventional method (Methods Mol. Biol. (2002) 178, 133-145) from single colonies of E. coli obtained by the method described above. The collected culture supernatants were treated by ultrafiltration using NucleoFast 96 ([…]-NAGEL). 100 μl of the culture supernatants were added to each well, and the NucleoFast 96 was centrifuged (4500 g for 45 minutes) to remove flow-through. One hundred μl of H2O was added to each well, and again the NucleoFast 96 was centrifuged (4500 g for 30 minutes) for washing. After 100 μl of TBS was added, the NucleoFast 96 was allowed to stand for five minutes at room temperature. Finally, phage solution contained in the supernatant of each well was collected.\nThe purified phages, to which TBS or SC/TBS was added, were subjected to ELISA by the following procedure. A StreptaWell 96 microtiter plate (Roche) was coated overnight with 100 μl of TBS containing biotin-labeled HSA. After biotin-labeled HSA was removed by washing each well of the plate with TBST, the wells were blocked with 250 μl of 2% skim milk/TBS for one hour or more. 2% skim milk/TBS was removed, and then the prepared, purified phages were added to each well. […] Then, the developed color was assessed by measuring absorbance at 450 nm."}},
  "data": [
    {"molecule": "B1", "values": [
      {"measurement": "absorbance under condition 2 compared to condition 8", "setting": "HSA [1]; condition 2 (1 mM adenosine)", "result": "the same"},
      {"measurement": "absorbance under condition 9 as compared to condition 8", "setting": "HSA [1]; condition 9 (without small molecules) vs condition 8 (complete small molecule cocktail solution)", "result": "markedly lower"},
      {"measurement": "absorbance under other conditions", "setting": "HSA [1]; remaining conditions of Table 3", "result": "markedly lower"},
      {"measurement": "binding activity to HSA in the presence of the small molecule cocktail (phage ELISA)", "setting": "HSA [2]", "result": "has binding activity"}
    ]}
  ]
}
